Test results taken from PubChem BioAssay AID485297 (National Center for Advancing Translational Sciences (NCATS), 2010).
Out of some 320,000 compounds screened, about 9,100 (2.8%) were called active. The inconclusive results got no clear call from the source; some entries with a clear call stand among them for comparison. The call rests on the fitted dose curve; in most records, active means well fitted activation curve with a large enough effect; inconclusive means small, poorly fitted or top-dose-only effect; inactive means no such curve, though single readings can be large or run the other way. Where the call is inconclusive, the potency comes from a doubtful curve fit.

Assay: qHTS Assay for Rab9 Promoter Activators; further: nearly all actives have a fitted effect of over 60% in size; on activation, negative = inhibition: % of control where 0% means no effect
Settings: Huh7 Rab9 promoter-luciferase reporter, luminescence, 24 h; series mostly up to 9.22 µM; activation, negative = inhibition: at the top concentration
In short: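 Cell-based reporter: Huh7 stable for Rab9 promoter-driven luciferase, plated in reduced-serum medium with 10% FBS at 1500 cells/well, compound-treated 24 h at 37 °C, luminescence read after 10 min reagent.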
Potency means the concentration at half of the fitted maximal effect; tags describe the fitted curve by direction and shape.

Potency, inconclusive:
O=C(NC(=S)NCC1CCCO1)c1ccccc1F (centres undefined) 5.62 µM [activator, single point]
COc1cccc2cc(C(=O)NC(C)C3CCCO3)c(=O)oc12 (centres undefined) 5.62 µM [activator, single point]
CCn1c(C)nc2cc(C(=O)NNC(=O)c3ccc(C)cc3)ccc21 5.62 µM [activator, single point]
Cc1cc(C)cc(NC2=C(N)C(=O)c3ccccc3C2=O)c1 3.55 µM [activator, partial curve]
COC(=O)C1CCN(C(=O)c2cc3ccccc3oc2=O)CC1 3.16 µM [activator, partial curve]
CCN(CC)c1ccc(N2C(=O)c3ccccc3C2=O)cc1 3.98 µM [activator, single point]
O=C(NNC(=O)c1ccccc1O)c1ccc(Cl)cc1 2.24 µM [activator, partial curve]
COc1ccc(-c2coc3cc(O)ccc3c2=O)cc1OC 3.55 µM [activator, single point]
Cc1ccc(NC(=S)NC2CCCC2)cc1 2.82 µM [activator, single point]
COc1cccc(NC(=O)CSc2ccccn2)c1 3.55 µM [activator, partial curve]
CC(=O)Nc1ccc(NC(=O)c2ccco2)cc1 3.55 µM [activator, single point]
O=C(CSc1nnc(-c2ccccc2Cl)o1)N1CCCC1 2.82 µM [activator, partial curve]
O=C(O)c1cc(C(=O)C2CCCCC2)c[nH]1 3.98 µM [activator, single point]
Cc1c(CCO)c(=O)[nH]n1S(=O)(=O)c1ccc([N+](=O)[O-])cc1 2 µM [activator, partial curve]
CC1CCC(NC(=O)Cn2ncc3ccccc32)CC1 (centres undefined) 2.24 µM [activator, partial curve]
Nc1c(C(=O)Nc2ccccc2)sc2ncc([N+](=O)[O-])cc12 3.16 µM [activator, single point]
C=CCN(Cc1nc(-c2ccc(OC)cc2)no1)C(=O)c1ccc2c(c1)OCO2 1.26 µM [activator, single point]
Cc1cc(C(=O)CSc2cccc[n+]2[O-])c(C)n1-c1ccc(OC(F)F)cc1 2 µM [activator, partial curve]
Cc1ccc(Cl)c2c(N=Nc3ccccc3)c(O)[nH]c12 5.62 µM [activator, single point]
CCNC(=O)CSc1nc(-c2ccccc2)cs1 4.47 µM [activator, partial curve]
CC(=O)c1cnc2c(-c3ccc(Cl)cc3)cnn2c1C 5.62 µM [activator, single point]
Cc1nc(-c2ccc(Cl)cc2)sc1C(=O)O 3.98 µM [activator, partial curve]
Cc1ccc2nc(-c3sc4nc(C)cc(C)c4c3N)[nH]c2c1 3.55 µM [activator, single point]
CC1=CCC(/C=N\Nc2nnc3c(n2)[nH]c2ccccc23)CC1 (centres undefined) 3.55 µM [activator, single point]
NNC(=O)c1ccc(COc2ccc3ccccc3c2)o1 1 µM [activator, full curve, poor fit]
c1ccc(Nc2nnc(-c3cccc4ccccc34)o2)cc1 3.55 µM [activator, single point]
O=C(NC(=S)Nc1ncccn1)c1ccc(F)cc1 1.12 µM [activator, partial curve, poor fit]
CN1CCc2cc(NC(=O)Nc3cccnc3)ccc21 3.16 µM [activator, partial curve]
CNC(=O)c1ccc(-c2ccc(F)cc2)s1 5.62 µM [activator, partial curve]
CCOc1ncccc1C(=O)Nc1nc(SC)ns1 3.55 µM [activator, partial curve]
COC(=O)CCNC(=O)c1ccc2nc(Cc3ccc(OC)c(OC)c3)oc2c1 2.82 µM [activator, partial curve]
COc1cc(N2CCCC2)c(OC)cc1/C=c1/sc2nc3ccccc3n2c1=O 3.16 µM [activator, single point]
Clc1ccc(N2CCN(c3cnc4ccccc4n3)CC2)cc1 3.16 µM [activator, partial curve]
Cc1ccc(NC(=O)c2ccnc(C(C)(C)C)c2)cc1 4.47 µM [activator, single point]
CCCc1ccc2oc(C(=O)N(C)Cc3ccn[nH]3)c(C)c2c1 2.82 µM [activator, partial curve]
c1ccc(CSc2nc3ncccn3n2)cc1 3.55 µM [activator, partial curve]
Nc1cc(S(=O)(=O)N2CCCCC2)ccc1N1CCCCC1 3.98 µM [activator, single point]
Cc1cccc(C(=O)NNC(=O)c2ccc(Cl)cc2)c1O 3.55 µM [activator, partial curve]
CCCn1nnc(NC(=O)c2ccccc2Cl)n1 3.55 µM [activator, partial curve]
Cc1cc(C)n(-c2ccc(C(=O)Nc3nnc(C)s3)cc2)n1 1.58 µM [activator, partial curve]
Clc1cccc(CSc2nc3ccncc3[nH]2)c1 5.62 µM [activator, single point]
Cn1c(SCc2cccc(F)c2)nnc1-c1ccccn1 2.82 µM [activator, partial curve]

Potency, active:
Cc1ccc(CSCC(=O)Nc2ccccc2C(=O)O)cc1 2.82 µM
CC(=O)c1ccc(Nc2ccc(-c3ccccc3C)nn2)cc1 1.58 µM
COc1ccccc1-c1cc(C(=O)N2CCOCC2)no1 2.24 µM
CC1(C)Oc2ccc(NC(=O)C3COc4ccccc4O3)cc2O1 (centres undefined) 0.501 µM
Cc1ccc(OCc2cc(C(=O)N(C)CCc3ccccn3)no2)cc1C 3.55 µM
O=C(/C=C/Nc1ccc(F)c(Cl)c1)c1ccccc1 3.55 µM
COc1ccc(-c2nc3ccccn3c2C=O)cc1 3.16 µM
O=C(N/N=C/c1cccc2ccccc12)c1cccs1 3.55 µM
CC(=O)Nc1ccccc1C(=O)C(=O)Nc1ccc(F)c(Cl)c1 3.16 µM
Cc1ccc(NC(=O)c2ccc3c(=O)n4c(nc3c2)CCC4)cc1F 2.51 µM
CCOC(=O)C1CCCN(C(=O)c2cc(-c3ccc(C)cc3)on2)C1 (centres undefined) 0.891 µM
CC1CCc2c(sc(NC(=O)C3CCCO3)c2C#N)C1 (centres undefined) 3.16 µM
COc1ccccc1OCc1cc(C(=O)N2CC3C[C@@H]4CC2C[C@H](C3)C4)no1 3.55 µM

activation, negative = inhibition, inactive:
Cc1c(NC(=O)COc2cccc(F)c2)c(=O)n(-c2ccccc2)n1C -5.18%
O=C(c1ccc(NS(=O)(=O)c2ccc3c(c2)OCCO3)cc1)N1CCCCC1 -3.85%
COCC(=O)n1nc(NCc2ccc(OC)cc2)nc1NCc1ccc(OC)cc1 -0.723%
COc1ccc(C)cc1NC(=O)NNC(=O)C(C)Oc1ccc(F)cc1Cl (centres undefined) 8.29%
COCCNC(=S)N/N=C/c1ccc([N+](=O)[O-])cc1 0.63%
Cc1cc(=O)oc(C)c1C(=O)OCC(=O)c1ccc(Br)cc1 12.1%
Cc1c(N=C2SCC(=O)N2/N=C/c2ccccc2)c(=O)n(-c2ccccc2)n1C -8.85%
CCN(CC)S(=O)(=O)c1ccc(NC(=O)CCN2C(=O)C3CC=CCC3C2=O)cc1 (centres undefined) 19.9%
Cc1ccc(-n2c(SCC(=O)N3CCCCC3)nc(O)c(Cc3ccccc3)c2=O)cc1 -4.65%
c1ccc(-c2cn(-c3ccccc3)c3[n+]2CCCS3)cc1 -19.6%
CCOc1ccc(-c2cc(N3C(=O)Nc4ccccc4N3O)n[nH]2)cc1 -2.72%
O=C(NCCc1ccc(Cl)cc1Cl)c1cncc(Br)c1 1.87% [at 1.84 µM]
O=S(=O)(c1ccc(NC(=S)NCc2ccc(F)cc2)cc1)N1CCOCC1 -0.287%
CCOc1ccc(-c2ccc(/C=C3/C(=N)N4C=CSC4=NC3=O)o2)c([N+](=O)[O-])c1 -5.59%
COC(=O)c1ccc(CNC(=O)c2ccc(OCC(=O)N3CCOCC3)c(OC)c2)cc1 -0.814%
O=C(COc1ccc(Cl)cc1Cl)N/N=C/c1ccc[nH]1 -52.3%
CC1=CC(C)C(C[N+]2(C)CCCCC2)C(C)C1 (centres undefined) -9.42%
O=C(Nc1cccnc1)C1CC(c2ccccc2O)=NO1 (centres undefined) 9.67%
COc1cc(OC)cc(C(=O)Nc2cccc(NC(C)=O)c2)c1 -7.4%
CCC(CO)Nc1ccc(-c2n[nH]c(=O)c3ccccc23)cc1[N+](=O)[O-] (centres undefined) -6.41%
CC1(C)Cc2c(c(N3CCOCC3)nc3snc(Br)c23)CO1 0.521%
Cc1nn(-c2ccccc2)c(Cl)c1/C=N/NC(=O)CCNc1n[nH]c(=O)[nH]c1=O -10.1%
O=C(CSc1nnnn1-c1ccc(Cl)c(C(=O)O)c1)NC(c1ccccc1)c1ccccc1 -4.2%
O=C(NNC(=O)c1ccccc1Br)c1ccccc1Cl 28.3%
